This is an account of results in ChEMBL document CHEMBL1201862, “PubChem BioAssay data set” (2004).

Each structure is given as a SMILES string.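 Values below derive from 48-hour exposures of cells grown in 96-well plates, with endpoints linearly interpolated between the two concentrations bracketing the appropriate inhibition level. GI50 marks 50% less growth.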 Calls of active or inactive are those of the source. No stated cut-off is given here; in the data, active = GI50 up to about 1.1 µM and inactive = higher.

For this experiment, the system named is NCI-H322M. The experiment in a line: NCI tumour cell line growth inhibition, 48 h.
For `Nc1ncnc2c1nc(Cl)n2C1OC(CO)C(O)C1O` (stereo not drawn), the GI50 is inactive: 8.43 µM.

Take `c1nc(NCCc2c[nH]cn2)c2nc[nH]c2n1`: the GI50 is inactive: > 100 µM.

Turning to `CCCCc1ccc(Nc2nc(Cl)c3[nH]cnc3n2)cc1`, the GI50 was inactive: 37.2 µM.

In the case of `ClCCCSSCCCCl`, the GI50 was inactive: 64 µM.

On to `Cc1nnc(N)nc1/C=C\c1ccc(Cl)cc1Cl`, for which the GI50 is inactive: 66.7 µM.

`NCCSC1(O)C(=O)c2ccccc2-c2ccccc21` (stereo not drawn): the GI50 is inactive: 1.59 µM.

On to `CC(=O)O[C@H]1C(=O)[C@]2(C)[C@@H](OC(=O)OCCC(O)CO)C[C@H]3OC[C@@]3(OC(C)=O)[C@H]2[C@H](OC(=O)c2ccccc2)[C@]2(O)C[C@H](OC(=O)[C@H](O)[C@@H](NC(=O)c3ccccc3)c3ccccc3)C(C)=C1C2(C)C` (stereo partly drawn), for which the GI50 is active: 0.027 µM.

For the compound `COC(=O)C1=C(O)C(C(=O)OC)[C@]2(O)[C@H](C(=O)OC)[C@H]1C[C@@H](c1ccc(F)cc1)[C@H]2C(=O)OC` (stereo partly drawn), the GI50 was inactive: 14.1 µM.

On to `OCC(O)C(O)C(O)c1nn(-c2ccc(F)cc2)c2nc3cc(Cl)c(Cl)cc3nc12` (stereo not drawn), for which the GI50 was inactive: 30.7 µM.

`Oc1ccc(Cl)cc1C1=NC(NCN2CCN(CNC3=NC(c4ccccc4)CC(c4cc(Cl)ccc4O)=N3)CC2)=NC(c2ccccc2)C1` (stereo not drawn): the GI50 is inactive: 41.6 µM.

Take `COc1ccc(C2=C(Cl)c3cc(OC)c(OC)cc3C2Cl)cc1OC` (stereo not drawn): the GI50 was inactive: 20.7 µM.

Consider `O=C(NCCCl)O/N=C/c1cccnc1`, for which the GI50 was inactive: > 100 µM.

With `O=[N+]([O-])c1ccc2c(Nc3ccccc3-c3ccccc3Nc3c4ccccc4nc4cc([N+](=O)[O-])ccc34)c3ccccc3nc2c1`, the GI50 is inactive: 13.4 µM.

As to `CCCCN(CCCC)C(=C(C(Cl)=C(Cl)Cl)[N+](=O)[O-])N(CCCC)CCCC`, the GI50 was inactive: 48.8 µM.

For `COc1ccc(OC)c(C2Cc3cnc4nc(N)nc(N)c4c3C2)c1` (stereo not drawn), the GI50 was inactive: 22.9 µM.

For the compound `CC(=O)OCC1OC(NC(=S)Nn2c(=O)[nH]c3ccccc3c2=O)C(OC(C)=O)C(OC(C)=O)C1OC(C)=O` (stereo not drawn), the GI50 is inactive: > 100 µM.

As to `N#CC12C(=O)N=C(N)C1(C#N)C(c1ccco1)NC1=C2CCCC1` (stereo not drawn), the GI50 is inactive: > 100 µM.

As to `CN/C(=N/C#N)NCc1ccccc1`, the GI50 was inactive: > 100 µM.

Consider `c1ccc(-c2cnc3nc4ccccc4nc3n2)cc1`, for which the GI50 is inactive: 5.37 µM.

On to `Brc1ccc(-c2ccc(-c3ccc(-c4ccc(Br)s4)s3)s2)s1`, for which the GI50 is inactive: > 100 µM.

`Oc1ccc(-c2cc(-c3cc(-c4ccc(O)cc4)no3)on2)cc1`: the GI50 is inactive: > 93.3 µM.

Regarding `CC(=O)OC1C(=O)C(O)C(C)OC1O[C@@H]1C[C@@]2(C)[C@@H]3CC=C4[C@@H](C[C@H](O)C(=O)C4(C)C)[C@]3(C)C(=O)C[C@]2(C)[C@H]1[C@@](C)(O)C(=O)/C=C/C(C)(C)O` (stereo partly drawn), the GI50 is inactive: > 7.4 µM.

`O=C1[C@H]2ON(c3ccccc3)C(c3cccc([N+](=O)[O-])c3)[C@H]2C(=O)N1c1ccc(Cc2ccc(N3C(=O)[C@@H]4ON(c5ccccc5)C(c5cccc([N+](=O)[O-])c5)[C@@H]4C3=O)cc2)cc1` (stereo partly drawn): the GI50 is inactive: > 100 µM.

On to `O/N=C1/C(=C/c2ccc(Cl)cc2)CCCC1C(NO)c1ccc(Cl)cc1` (stereo not drawn), for which the GI50 was inactive: 15.4 µM.

Regarding `CCCCC1Cc2cc(OC)ccc2-c2nc3cc(OC)ccc3n21.CCCCC1Cc2cc(OC)ccc2-c2nc3ccc(OC)cc3n21` (stereo not drawn), the GI50 is inactive: 16.8 µM.

With `CC(NC(=O)CNP(=O)(c1ccccc1)c1ccccc1)C(=O)NC(Cc1ccccc1)C(=O)OCc1ccccc1` (stereo not drawn), the GI50 is inactive: 56 µM.

In the case of `CSC1=C(C(=O)Nc2ccc(C)cc2)C(N)=NC1=O`, the GI50 is inactive: > 100 µM.

With `OC1[C@@H]2[C@@H](O)[C@H](O)[C@@H](O)N2C[C@@H]1O` (stereo partly drawn), the GI50 is inactive: > 100 µM.

On to `CCOP(=O)(OCC)/C(C#N)=C/c1ccco1`, for which the GI50 is inactive: > 100 µM.

On to `Cc1ccsc1C(=O)C(CC(=O)c1cccs1)c1ccsc1` (stereo not drawn), for which the GI50 is inactive: 51.4 µM.

`CC[C@H]1C=CCC[C@@]2(C[C@@H]3CC[C@@H]4[C@H](C(=O)OCCCCCCCCCCCCCCCC(=O)N(CCCN)C[C@@H](O)CCN)[C@]5(CCC[C@@H](C)O5)NC(=[N+]34)N2)O1`: the GI50 was active: 0.826 µM.

As for `CCOC(=O)c1c2ccc(/C=C/C(=O)OC)ccc-2c(C(=O)OCC)c1N`, the GI50 was inactive: 2.21 µM.

For the compound `COc1ccc(/C=C2\NC(=S)N(CN3CCOCC3)C2=O)cc1`, the GI50 was inactive: > 100 µM.

Consider `COC(=O)Nc1nc2cc(NC(=O)c3ccc(I)cc3)ccc2[nH]1`, for which the GI50 is inactive: > 100 µM.

For the compound `Cc1nc2cccc(F)c2c(=O)n1-c1nnc(C(F)(F)F)s1`, the GI50 is inactive: > 10 µM.

For `NC(=S)N/N=C1\C(=O)C=C(Nc2ccc(Cl)cc2Cl)c2ccccc21`, the GI50 was inactive: 39.7 µM.

In the case of `CCC(C)SC1SCC2C(=O)N(C)C3(CC3C)C(=O)OCC(NC(=O)c3nc4ccccc4cc3O)C(=O)NC(C)C(=O)N(C)C1C(=O)N(C)C1(CC1C)C(=O)OCC(NC(=O)c1nc3ccccc3cc1O)C(=O)NC(C)C(=O)N2C` (stereo not drawn), the GI50 was active: 5.16e-05 µM.

`COc1cc(/C=C/C(=O)OC[C@H](Br)[C@H](OC(C)=O)c2ccc3c(c2)OCO3)cc(OC)c1OC`: the GI50 is inactive: > 100 µM.

As to `CC(C)(Oc1ccc(C(=O)c2ccc(Cl)cc2)cc1Cl)C(=O)Nc1c(Cl)cccc1Cl`, the GI50 was inactive: > 100 µM.

Take `C/C(=N\NC(N)=S)C(CN(CC(C)C)CC(C)C)C(=O)Nc1ccc(C)cc1C` (stereo not drawn): the GI50 was inactive: > 100 µM.

Take `Nn1c(CCCl)nc2c(Br)cc(Br)cc2c1=O`: the GI50 is inactive: 25.5 µM.

For the compound `CC(=O)NC1C(O)CC(OCCCSCCN)(C(=O)O)OC1C(O)C(O)CO` (stereo not drawn), the GI50 is inactive: > 100 µM.

`CN(C)CCC(CCN(C)C)=NO`: the GI50 was inactive: > 100 µM.

For `Cc1cc(C)c(N[S+]([O-])c2cccc([N+](=O)[O-])c2)c(C)c1` (stereo not drawn), the GI50 is inactive: > 100 µM.

For `CC(C)=CC(=O)CC(=O)C(=O)Nc1ccc(C)c(C)c1`, the GI50 was inactive: > 100 µM.

Take `COc1ccc(CNc2cnc3ccc(N)cc3n2)cc1`: the GI50 is inactive: > 100 µM.

In the case of `COc1cccc(C2c3cc4c(cc3OC(NNS(=O)(=O)c3ccc(C)cc3)C2C)OCO4)c1OC` (stereo not drawn), the GI50 is inactive: 4.63 µM.

With `O=C(O)CCc1nn2c(nc1=O)sc1ccc3ccccc3c12`, the GI50 is inactive: > 100 µM.

Consider `Cc1ccc(CNNC(=O)c2cc[n+]([BH2-]C#N)cc2)cc1`, for which the GI50 is inactive: > 100 µM.

As to `COC(=O)C1=Cc2c(cc(OC)c(OC)c2OC)[C@H](c2ccc(OC)c(OC)c2OC)C1C(=O)OC` (stereo partly drawn), the GI50 was inactive: > 100 µM.

`CN(C)CCCc1c[nH]c2ccccc12`: the GI50 was inactive: > 100 µM.

For `CC1(C)CC[C@]2(C(=O)O)CC[C@]3(C)C(=CC[C@@H]4[C@@]5(C)C[C@H](O)[C@H](O)[C@@](C)(C(=O)O)[C@@H]5CC[C@]43C)[C@@H]2C1`, the GI50 was inactive: > 100 µM.

As for `CCC[C@@H]1C(=O)N=C(N)N1C(=O)OCc1ccccc1`, the GI50 was inactive: > 100 µM.
